This note sets out measurements from PMC4336329 (PLoS ONE, 2015).

Among all 310,000 compounds or so, about 14,000 (4.5%) showed an effect of 50% or more. Effects have a minus sign here. The list shows a part of the results.
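Further: peak tail current of the secondary pulse compared with the same well before compound.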

For this experiment, the target named is human ether-à-go-go-related gene (hERG) potassium channel (human, UniProt Q12809). Nature of the experiment: primary screen, population patch clamp on CHO cells stably expressing hERG.
Sequence of human ether-à-go-go-related gene (hERG) potassium channel (Q12809 whole entry, looked up): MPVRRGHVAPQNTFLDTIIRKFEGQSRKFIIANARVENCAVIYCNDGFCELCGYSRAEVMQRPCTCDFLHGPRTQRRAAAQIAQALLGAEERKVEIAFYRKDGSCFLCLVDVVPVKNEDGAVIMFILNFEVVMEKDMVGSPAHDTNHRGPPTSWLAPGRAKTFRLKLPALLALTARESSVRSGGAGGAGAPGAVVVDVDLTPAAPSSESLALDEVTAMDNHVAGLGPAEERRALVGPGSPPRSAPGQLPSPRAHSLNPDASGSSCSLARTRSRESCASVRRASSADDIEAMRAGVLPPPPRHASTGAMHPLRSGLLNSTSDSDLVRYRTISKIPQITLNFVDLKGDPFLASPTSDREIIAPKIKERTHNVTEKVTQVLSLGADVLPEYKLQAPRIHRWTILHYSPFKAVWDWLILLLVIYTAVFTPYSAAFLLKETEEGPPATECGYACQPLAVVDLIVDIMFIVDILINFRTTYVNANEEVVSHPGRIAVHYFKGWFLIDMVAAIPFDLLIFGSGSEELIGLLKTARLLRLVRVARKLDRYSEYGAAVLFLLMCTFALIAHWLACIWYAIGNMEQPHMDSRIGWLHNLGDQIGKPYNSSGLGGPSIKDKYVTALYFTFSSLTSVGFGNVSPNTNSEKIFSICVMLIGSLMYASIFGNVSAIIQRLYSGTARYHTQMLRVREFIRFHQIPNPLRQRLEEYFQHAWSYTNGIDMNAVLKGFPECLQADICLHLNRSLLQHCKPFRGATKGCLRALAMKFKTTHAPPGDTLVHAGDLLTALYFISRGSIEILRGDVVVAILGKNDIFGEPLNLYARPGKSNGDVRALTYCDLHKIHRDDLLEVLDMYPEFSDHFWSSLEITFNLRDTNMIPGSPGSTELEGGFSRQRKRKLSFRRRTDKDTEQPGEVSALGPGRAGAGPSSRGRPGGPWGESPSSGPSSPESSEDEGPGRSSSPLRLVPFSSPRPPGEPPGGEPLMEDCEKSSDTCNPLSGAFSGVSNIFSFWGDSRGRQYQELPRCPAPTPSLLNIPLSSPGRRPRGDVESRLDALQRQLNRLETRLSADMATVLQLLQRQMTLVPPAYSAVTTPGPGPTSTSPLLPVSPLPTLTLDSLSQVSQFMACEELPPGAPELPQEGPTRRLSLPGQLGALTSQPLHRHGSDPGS
Turning to `O=[N+]([O-])c1ccc(-c2cc(-c3ccc(Cl)cc3)n[nH]2)cc1`, the “hERG current change (%, negative = inhibition) at 10uM” value is -4.49%. The same measure for `Cc1cc(NC(=O)CSc2nnc(-c3cccs3)n2N)no1`: 20.1%; for `Cc1ccccc1NC(=S)NNc1ncc(C(F)(F)F)cc1Cl`: 12%. The same measure for `O=C(Nc1ccccc1Br)C1CCCN1S(=O)(=O)c1cccc2nsnc12` (centres unmarked): -5.19%; for `Cc1cccc(N2C(=O)/C(=C/c3cccnc3)SC2=S)c1`: 4.09%; for `COc1cc2c(=O)n(CCC(=O)NCC3CCCO3)c(=O)n(CC(=O)c3ccc(Cl)cc3)c2cc1OC` (centres unmarked): -20.4%. The same measure for `COC(=O)[C@@H](NC(=O)Nc1ccc(OC(F)(F)F)cc1)C(C)C`: 7.62%. For `CCCc1nc([N+](=O)[O-])c(S(=O)(=O)c2ccccc2)n1CC(C)C`, the “hERG current change (%, negative = inhibition) at 10uM” value is recorded as -11.6%. The same measure for `CN1C[C@H](C(=O)N[C@]2(C)O[C@@]3(O)[C@@H]4CCCN4C(=O)[C@H](Cc4ccccc4)N3C2=O)CC2c3cccc4[nH]cc(c34)C[C@H]21.CS(=O)(=O)O` (some centres unmarked): -8.73%. The same measure for `O=C(c1cc2cc([N+](=O)[O-])ccc2oc1=O)n1cccn1`: 2.07%; for `OC(COc1ccc2ccccc2c1Br)Cn1ccnc1` (centres unmarked): -22.5%; for `Cc1ccc(NC(=O)c2cccnc2C(=O)O)nc1`: 23.5%.

On to `Cc1cc(=O)[nH]c(SCCOc2ccc(OC(C)C)cc2)n1`, for which the “hERG current change (%, negative = inhibition) at 10uM” value is -4.17%. As for `O=C(CN1CCCCC1)Nc1ccccc1NC(=O)CN1CCCCC1`, the “hERG current change (%, negative = inhibition) at 10uM” value is recorded as 3.83%. The same measure for `OC(CNCCc1ccc(Cl)cc1)COc1cc(Cl)ccc1Cl` (centres unmarked): -56.6%. Consider `Cc1noc(C)c1C(=O)Nc1cccc(S(=O)(=O)N2CCCCC2)c1`, for which the “hERG current change (%, negative = inhibition) at 10uM” value is -10.6%. The same measure for `CC(C)COc1ccc(C(=O)N(Cc2ccco2)C2CCS(=O)(=O)C2)cc1` (centres unmarked): -20.8%; for `O=C(CSc1ncccn1)N1CCc2ccccc2C1`: 5.19%. The same measure for `Cc1ccc(NC(=O)COc2cccc(C)c2C)cc1S(=O)(=O)N1CCCCCC1`: -31.3%. The same measure for `CCC(C(=O)NCc1ccc(OC)cc1)n1nc(C)n2c(cc3occc32)c1=O` (centres unmarked): -12.7%; for `O=C1c2cccc3c(Nc4ccccc4Cl)c([N+](=O)[O-])cc(c23)C(=O)N1CCO`: -22.8%; for `C/C(=N/NS(=O)(=O)c1cccc([N+](=O)[O-])c1)c1c[nH]c2ccccc12`: 13%. For `ONC(=Nc1cccc(C(F)(F)F)c1)c1cccnc1`, the “hERG current change (%, negative = inhibition) at 10uM” value is -8.43%. The same measure for `O=C(NC(c1ccccc1)c1ccccc1)C1CCCN(S(=O)(=O)c2cnc[nH]2)C1` (centres unmarked): 11%; for `CC(=O)Nc1ccc(NC(=O)Cn2cnc(S(=O)(=O)N3CCOCC3)c2)cc1`: 10.8%. The same measure for `CCC(C)C(NC(N)=O)C(=O)Nc1ccc(OCc2ccccc2)cc1` (centres unmarked): 15.4%; for `CCOc1cccc2cc(C(=O)NCc3ccccc3Cl)c(=O)oc12`: 11.2%; for `Cc1cc(NC(=O)c2ccc(S(=O)(=O)N(C)CC3CCCO3)cc2)no1` (centres unmarked): 2.09%. On to `O=c1oc2ccccc2cc1-c1csc(Nc2nc3ccc(F)cc3s2)n1`, for which the “hERG current change (%, negative = inhibition) at 10uM” value was 4.43%. The same measure for `O=C(NNC(=O)c1sc2cccc(Cl)c2c1Cl)Nc1ccccc1`: 10.2%; for `CCC(C)C(=O)N1CCc2cc(-c3csc(N)n3)ccc21` (centres unmarked): 12.1%. The same measure for `COc1cccc(NC(=O)CN(c2ccc([N+](=O)[O-])cc2)S(=O)(=O)c2ccccc2)c1`: -5.69%. As for `Cc1cccc(Nc2nccc(N(C)C)c2C#N)c1`, the “hERG current change (%, negative = inhibition) at 10uM” value is reported as 10%. The same measure for `O=c1cc(-c2c(O)c3ccccc3n(Cc3ccccc3)c2=O)[nH][nH]1`: 20.6%; for `CCCCCc1ccc(-c2ccc(OC)cc2)nc1`: 19.7%. The same measure for `Cc1ccsc1C(=O)NCCc1nnc2ccccn12`: 18.9%; for `COc1cccc(NC(=O)C(Sc2nnc(Nc3ccccc3C)s2)c2ccccc2)c1` (centres unmarked): 1.76%; for `CCOC(=O)c1sc(NC(=O)c2ccccc2C(=O)O)c(C(=O)OCC)c1C`: -1.78%. The same measure for `Cc1ccc(S(=O)(=O)N2C(=O)C(C)SC2=Nc2ccccc2)cc1` (centres unmarked): 9.44%. `Cn1cc(S(=O)(=O)N2CCCC2)cc1C(=O)NCc1ccccc1Cl`: the “hERG current change (%, negative = inhibition) at 10uM” value is on record as -18.4%.

As to `Cc1cc(C)n(CC(C)O)c(=O)c1C#N` (centres unmarked), the “hERG current change (%, negative = inhibition) at 10uM” value is given as 8.95%.

For `Cc1cccnc1Nc1nc(-c2ccc(O)cc2O)cs1`, the “hERG current change (%, negative = inhibition) at 10uM” value is given as 0.45%. For `CCCCN(C(=O)CSc1nnc(-c2ccccc2)n1C)c1c(N)n(Cc2ccccc2)c(=O)[nH]c1=O`, the “hERG current change (%, negative = inhibition) at 10uM” value was found to be 7.33%. The same measure for `CC1CN=C2C(C(=O)Nc3ccccc3)=C(O)CC(c3ccccc3)N21` (centres unmarked): -36.2%.
